# Assay results from the supplement of paper PMC8728848.
# The other results are listed elsewhere or left out.
# B1: FBG5 (Homo sapiens), Q8NI29 (protein)
# chain: MGASVSRGRAARVPAPEPEPEEALDLSQLPPELLLVVLSHVPPRTLLGRCRQVCRGWRALVDGQALWLLILARDHGATGRALLHLARSCQSPARNARPCPLGRFCARRPIGRNLIRNPCGQEGLRKWMVQHGGDGWVVEENRTTVPGAPSQTCFVTSFSWCCKKQVLDLEEEGLWPELLDSGRIEICVSDWWGARHDSGCMYRLLVQLLDANQTVLDKFSAVPDPIPQWNNNACLHVTHVFSNIKMGVRFVSFEHRGQDTQFWAGHYGARVTNSSVIVRVRLS
# Key:
# Assay in all cases: glycan array binding signal (z-score within array); higher = stronger binding
# Conditions in all cases: glycan notation: IUPAC condensed, linker removed
# [1] = target: Gal(b1-3)[Neu5Ac(a2-6)]GalNAc
# Outline: (§1)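 Negative Z-scores can be read as non-binding. The Z-score is calculated within each array and then averaged across arrays of one protein sequence at different concentrations or buffers and across linkers. Arrays, 3228 in all, were curated from the Consortium for Functional Glycomics database and kept only where the protein sequence was available.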
# [2] = target: Gal(b1-3)[Neu5Ac(a2-6)]GlcNAc
# Outline: as §1
# [3] = target: Gal(b1-3)[Neu5Ac(a2-6)]GlcNAc(a1-4)Gal(b1-4)Glc
# Outline: as §1
# [4] = target: Gal(b1-3)[Neu5Ac(b2-6)]GlcNAc
# Outline: as §1
# [5] = target: Gal(b1-4)GalNAc(a1-3)[Fuc(a1-2)]Gal(b1-4)GlcNAc
# Outline: as §1
# [6] = target: Gal(b1-4)GalNAc(b1-3)[Fuc(a1-2)]Gal(b1-4)GlcNAc
# Outline: as §1
# Gal(b1-4)Glc = target: Gal(b1-4)Glc
# Outline: as §1
# Gal(b1-4)Glc6S = target: Gal(b1-4)Glc6S
# Outline: as §1
# Gal(b1-4)GlcNAc = target: Gal(b1-4)GlcNAc
# Outline: as §1
# [7] = target: Gal(b1-4)GlcNAc(b1-2)Man(a1-3)[Gal(b1-4)GlcNAc(b1-2)Man(a1-6)]Man(b1-4)GlcNAc(b1-4)GlcNAc
# Outline: as §1
# [8] = target: Gal(b1-4)GlcNAc(b1-3)Gal(b1-4)Glc
# Outline: as §1
# [9] = target: Gal(b1-4)GlcNAc(b1-3)Gal(b1-4)GlcNAc
# Outline: as §1
# [10] = target: Gal(b1-4)GlcNAc(b1-3)Gal(b1-4)GlcNAc(b1-3)Gal(b1-4)GlcNAc
# Outline: as §1
# [11] = target: Gal(b1-4)GlcNAc(b1-3)Gal(b1-4)[Fuc(a1-3)]GlcNAc(b1-3)Gal(b1-4)[Fuc(a1-3)]GlcNAc
# Outline: as §1
# [12] = target: Gal(b1-4)GlcNAc(b1-3)GalNAc
# Outline: as §1
# [13] = target: Gal(b1-4)GlcNAc(b1-3)[Gal(b1-4)GlcNAc(b1-6)]GalNAc
# Outline: as §1
# [14] = target: Gal(b1-4)GlcNAc(b1-6)GalNAc
# Outline: as §1
# [15] = target: Gal(b1-4)GlcNAc(b1-6)[Gal(b1-3)]GalNAc
# Outline: as §1
# [16] = target: Gal(b1-4)GlcNAc(b1-6)[Gal(b1-3)]GlcNAc
# Outline: as §1
# Gal3S(b1-3)GalNAc = target: Gal3S(b1-3)GalNAc
# Outline: as §1
# Gal3S(b1-3)GlcNAc = target: Gal3S(b1-3)GlcNAc
# Outline: as §1
# [17] = target: Gal3S(b1-3)[Fuc(a1-4)]GlcNAc
# Outline: as §1
# Gal3S(b1-4)Glc = target: Gal3S(b1-4)Glc
# Outline: as §1
# Gal3S(b1-4)Glc6S = target: Gal3S(b1-4)Glc6S
# Outline: as §1
# Gal3S(b1-4)GlcNAc = target: Gal3S(b1-4)GlcNAc
# Outline: as §1
# Gal3S(b1-4)GlcNAc6S = target: Gal3S(b1-4)GlcNAc6S
# Outline: as §1
# Gal3S6S(b1-4)GlcNAc = target: Gal3S6S(b1-4)GlcNAc
# Outline: as §1
# Gal3S6S(b1-4)GlcNAc6S = target: Gal3S6S(b1-4)GlcNAc6S
# Outline: as §1
# Gal4S(b1-4)GlcNAc = target: Gal4S(b1-4)GlcNAc
# Outline: as §1
# Gal4S6S(b1-4)GlcNAc = target: Gal4S6S(b1-4)GlcNAc
# Outline: as §1
# Gal6S(b1-4)Glc = target: Gal6S(b1-4)Glc
# Outline: as §1
# Gal6S(b1-4)Glc6S = target: Gal6S(b1-4)Glc6S
# Outline: as §1
# Gal6S(b1-4)GlcNAc = target: Gal6S(b1-4)GlcNAc
# Outline: as §1
# GalNAc(a1-3)Gal = target: GalNAc(a1-3)Gal
# Outline: as §1
# GalNAc(a1-3)GalNAc = target: GalNAc(a1-3)GalNAc
# Outline: as §1
# [18] = target: GalNAc(b1-3)Gal(a1-4)Gal(b1-4)GlcNAc
# Outline: as §1
# GalNAc(b1-4)GlcNAc = target: GalNAc(b1-4)GlcNAc
# Outline: as §1
# Glc(a1-4)Glc = target: Glc(a1-4)Glc
# Outline: as §1
# Glc(a1-6)Glc(a1-6)Glc = target: Glc(a1-6)Glc(a1-6)Glc
# Outline: as §1
# Glc(b1-4)Glc = target: Glc(b1-4)Glc
# Outline: as §1
# Glc(b1-6)Glc = target: Glc(b1-6)Glc
# Outline: as §1
# GlcA(b1-3)Gal = target: GlcA(b1-3)Gal
# Outline: as §1
# GlcA(b1-6)Gal = target: GlcA(b1-6)Gal
# Outline: as §1
# [19] = target: GlcNAc(a1-3)Gal(b1-4)GlcNAc
# Outline: as §1
# [20] = target: GlcNAc(a1-6)Gal(b1-4)GlcNAc
# Outline: as §1
# [21] = target: GlcNAc(b1-2)Gal(b1-3)GlcNAc
# Outline: as §1
# [22] = target: GlcNAc(b1-2)Man(a1-3)[GlcNAc(b1-2)Man(a1-6)]Man(b1-4)GlcNAc(b1-4)GlcNAc
# Outline: as §1
# GlcNAc(b1-3)Gal = target: GlcNAc(b1-3)Gal
# Outline: as §1
# [23] = target: GlcNAc(b1-3)Gal(b1-3)GalNAc
# Outline: as §1
# GlcNAc(b1-3)Gal(b1-4)Glc = target: GlcNAc(b1-3)Gal(b1-4)Glc
# Outline: as §1
# [24] = target: GlcNAc(b1-3)Gal(b1-4)GlcNAc
# Outline: as §1
# [25] = target: GlcNAc(b1-3)Gal(b1-4)GlcNAc(b1-3)Gal(b1-4)GlcNAc
# Outline: as §1
# GlcNAc(b1-3)GalNAc = target: GlcNAc(b1-3)GalNAc
# Outline: as §1
# [26] = target: GlcNAc(b1-3)[GlcNAc(b1-4)][GlcNAc(b1-6)]GlcNAc
# Outline: as §1
# [27] = target: GlcNAc(b1-3)[GlcNAc(b1-6)]Gal(b1-4)GlcNAc
# Outline: as §1
# [28] = target: GlcNAc(b1-3)[GlcNAc(b1-6)]GlcNAc
# Outline: as §1
# [29] = target: GlcNAc(b1-4)Gal(b1-4)GlcNAc
# Outline: as §1
# [30] = target: GlcNAc(b1-4)GlcNAc(b1-4)GlcNAc
# Outline: as §1
# [31] = target: GlcNAc(b1-4)GlcNAc(b1-4)GlcNAc(b1-4)GlcNAc(b1-4)GlcNAc
# Outline: as §1
# [32] = target: GlcNAc(b1-4)GlcNAc(b1-4)GlcNAc(b1-4)GlcNAc(b1-4)GlcNAc(b1-4)GlcNAc
# Outline: as §1
# [33] = target: GlcNAc(b1-4)[GlcNAc(b1-6)]GalNAc
# Outline: as §1
# [34] = target: GlcNAc(b1-6)Gal(b1-4)GlcNAc
# Outline: as §1
# GlcNAc(b1-6)GalNAc = target: GlcNAc(b1-6)GalNAc
# Outline: as §1
# Kdn(a2-3)Gal(b1-3)GlcNAc = target: Kdn(a2-3)Gal(b1-3)GlcNAc
# Outline: as §1
binder,measurement,setting,value
B1,glycan array binding signal (z-score),[1],-0.237
same,glycan array binding signal (z-score),[2],-0.212
same,glycan array binding signal (z-score),[3],-0.228
same,glycan array binding signal (z-score),[4],-0.146
same,glycan array binding signal (z-score),[5],-0.188
same,glycan array binding signal (z-score),[6],-0.138
same,glycan array binding signal (z-score),Gal(b1-4)Glc,-0.202
same,glycan array binding signal (z-score),Gal(b1-4)Glc6S,-0.119
same,glycan array binding signal (z-score),Gal(b1-4)GlcNAc,-0.186
same,glycan array binding signal (z-score),[7],-0.102
same,glycan array binding signal (z-score),[8],-0.164
same,glycan array binding signal (z-score),[9],-0.132
same,glycan array binding signal (z-score),[10],-0.193
same,glycan array binding signal (z-score),[11],-0.087
same,glycan array binding signal (z-score),[12],-0.254
same,glycan array binding signal (z-score),[13],-0.152
same,glycan array binding signal (z-score),[14],-0.175
same,glycan array binding signal (z-score),[15],-0.079
same,glycan array binding signal (z-score),[16],-0.221
same,glycan array binding signal (z-score),Gal3S(b1-3)GalNAc,-0.205
same,glycan array binding signal (z-score),Gal3S(b1-3)GlcNAc,-0.161
same,glycan array binding signal (z-score),[17],-0.099
same,glycan array binding signal (z-score),Gal3S(b1-4)Glc,-0.15
same,glycan array binding signal (z-score),Gal3S(b1-4)Glc6S,0.206
same,glycan array binding signal (z-score),Gal3S(b1-4)GlcNAc,-0.166
same,glycan array binding signal (z-score),Gal3S(b1-4)GlcNAc6S,0.226
same,glycan array binding signal (z-score),Gal3S6S(b1-4)GlcNAc,-0.009
same,glycan array binding signal (z-score),Gal3S6S(b1-4)GlcNAc6S,2.32
same,glycan array binding signal (z-score),Gal4S(b1-4)GlcNAc,-0.127
same,glycan array binding signal (z-score),Gal4S6S(b1-4)GlcNAc,-0.011
same,glycan array binding signal (z-score),Gal6S(b1-4)Glc,-0.08
same,glycan array binding signal (z-score),Gal6S(b1-4)Glc6S,0.548
same,glycan array binding signal (z-score),Gal6S(b1-4)GlcNAc,-0.045
same,glycan array binding signal (z-score),GalNAc(a1-3)Gal,-0.208
same,glycan array binding signal (z-score),GalNAc(a1-3)GalNAc,-0.185
same,glycan array binding signal (z-score),[18],-0.139
same,glycan array binding signal (z-score),GalNAc(b1-4)GlcNAc,-0.199
same,glycan array binding signal (z-score),Glc(a1-4)Glc,-0.188
same,glycan array binding signal (z-score),Glc(a1-6)Glc(a1-6)Glc,-0.245
same,glycan array binding signal (z-score),Glc(b1-4)Glc,-0.165
same,glycan array binding signal (z-score),Glc(b1-6)Glc,-0.21
same,glycan array binding signal (z-score),GlcA(b1-3)Gal,-0.234
same,glycan array binding signal (z-score),GlcA(b1-6)Gal,-0.081
same,glycan array binding signal (z-score),[19],-0.094
same,glycan array binding signal (z-score),[20],-0.229
same,glycan array binding signal (z-score),[21],-0.224
same,glycan array binding signal (z-score),[22],-0.131
same,glycan array binding signal (z-score),GlcNAc(b1-3)Gal,-0.119
same,glycan array binding signal (z-score),[23],-0.102
same,glycan array binding signal (z-score),GlcNAc(b1-3)Gal(b1-4)Glc,-0.154
same,glycan array binding signal (z-score),[24],-0.128
same,glycan array binding signal (z-score),[25],-0.201
same,glycan array binding signal (z-score),GlcNAc(b1-3)GalNAc,-0.252
same,glycan array binding signal (z-score),[26],-0.095
same,glycan array binding signal (z-score),[27],-0.151
same,glycan array binding signal (z-score),[28],-0.132
same,glycan array binding signal (z-score),[29],-0.095
same,glycan array binding signal (z-score),[30],-0.141
same,glycan array binding signal (z-score),[31],0.055
same,glycan array binding signal (z-score),[32],-0.188
same,glycan array binding signal (z-score),[33],-0.211
same,glycan array binding signal (z-score),[34],-0.14
same,glycan array binding signal (z-score),GlcNAc(b1-6)GalNAc,-0.261
same,glycan array binding signal (z-score),Kdn(a2-3)Gal(b1-3)GlcNAc,-0.195
